# In PubChem BioAssay AID504333 (National Center for Advancing Translational Sciences (NCATS), 2011):
# Screen size: about 360,000 compounds; about 16,000 (4.4%) were called active. The shares of active, inactive and inconclusive entries below differ from those in the screen. Calls come from the whole dose curve; as a rule, active = well fitted inhibition curve with a large enough effect; inconclusive = small, poorly fitted or top-dose-only effect; inactive = no such curve, though single readings can be large or run the other way. A potency beside an inconclusive call is a rough fit, not a confirmed value.
# Target: Bromodomain adjacent to zinc finger domain protein 2B (Homo sapiens) (UniProt Q9UIF8)
# Chain of UniProt Q9UIF8 (Q9UIF8 whole entry, looked up, the tested form may be a part): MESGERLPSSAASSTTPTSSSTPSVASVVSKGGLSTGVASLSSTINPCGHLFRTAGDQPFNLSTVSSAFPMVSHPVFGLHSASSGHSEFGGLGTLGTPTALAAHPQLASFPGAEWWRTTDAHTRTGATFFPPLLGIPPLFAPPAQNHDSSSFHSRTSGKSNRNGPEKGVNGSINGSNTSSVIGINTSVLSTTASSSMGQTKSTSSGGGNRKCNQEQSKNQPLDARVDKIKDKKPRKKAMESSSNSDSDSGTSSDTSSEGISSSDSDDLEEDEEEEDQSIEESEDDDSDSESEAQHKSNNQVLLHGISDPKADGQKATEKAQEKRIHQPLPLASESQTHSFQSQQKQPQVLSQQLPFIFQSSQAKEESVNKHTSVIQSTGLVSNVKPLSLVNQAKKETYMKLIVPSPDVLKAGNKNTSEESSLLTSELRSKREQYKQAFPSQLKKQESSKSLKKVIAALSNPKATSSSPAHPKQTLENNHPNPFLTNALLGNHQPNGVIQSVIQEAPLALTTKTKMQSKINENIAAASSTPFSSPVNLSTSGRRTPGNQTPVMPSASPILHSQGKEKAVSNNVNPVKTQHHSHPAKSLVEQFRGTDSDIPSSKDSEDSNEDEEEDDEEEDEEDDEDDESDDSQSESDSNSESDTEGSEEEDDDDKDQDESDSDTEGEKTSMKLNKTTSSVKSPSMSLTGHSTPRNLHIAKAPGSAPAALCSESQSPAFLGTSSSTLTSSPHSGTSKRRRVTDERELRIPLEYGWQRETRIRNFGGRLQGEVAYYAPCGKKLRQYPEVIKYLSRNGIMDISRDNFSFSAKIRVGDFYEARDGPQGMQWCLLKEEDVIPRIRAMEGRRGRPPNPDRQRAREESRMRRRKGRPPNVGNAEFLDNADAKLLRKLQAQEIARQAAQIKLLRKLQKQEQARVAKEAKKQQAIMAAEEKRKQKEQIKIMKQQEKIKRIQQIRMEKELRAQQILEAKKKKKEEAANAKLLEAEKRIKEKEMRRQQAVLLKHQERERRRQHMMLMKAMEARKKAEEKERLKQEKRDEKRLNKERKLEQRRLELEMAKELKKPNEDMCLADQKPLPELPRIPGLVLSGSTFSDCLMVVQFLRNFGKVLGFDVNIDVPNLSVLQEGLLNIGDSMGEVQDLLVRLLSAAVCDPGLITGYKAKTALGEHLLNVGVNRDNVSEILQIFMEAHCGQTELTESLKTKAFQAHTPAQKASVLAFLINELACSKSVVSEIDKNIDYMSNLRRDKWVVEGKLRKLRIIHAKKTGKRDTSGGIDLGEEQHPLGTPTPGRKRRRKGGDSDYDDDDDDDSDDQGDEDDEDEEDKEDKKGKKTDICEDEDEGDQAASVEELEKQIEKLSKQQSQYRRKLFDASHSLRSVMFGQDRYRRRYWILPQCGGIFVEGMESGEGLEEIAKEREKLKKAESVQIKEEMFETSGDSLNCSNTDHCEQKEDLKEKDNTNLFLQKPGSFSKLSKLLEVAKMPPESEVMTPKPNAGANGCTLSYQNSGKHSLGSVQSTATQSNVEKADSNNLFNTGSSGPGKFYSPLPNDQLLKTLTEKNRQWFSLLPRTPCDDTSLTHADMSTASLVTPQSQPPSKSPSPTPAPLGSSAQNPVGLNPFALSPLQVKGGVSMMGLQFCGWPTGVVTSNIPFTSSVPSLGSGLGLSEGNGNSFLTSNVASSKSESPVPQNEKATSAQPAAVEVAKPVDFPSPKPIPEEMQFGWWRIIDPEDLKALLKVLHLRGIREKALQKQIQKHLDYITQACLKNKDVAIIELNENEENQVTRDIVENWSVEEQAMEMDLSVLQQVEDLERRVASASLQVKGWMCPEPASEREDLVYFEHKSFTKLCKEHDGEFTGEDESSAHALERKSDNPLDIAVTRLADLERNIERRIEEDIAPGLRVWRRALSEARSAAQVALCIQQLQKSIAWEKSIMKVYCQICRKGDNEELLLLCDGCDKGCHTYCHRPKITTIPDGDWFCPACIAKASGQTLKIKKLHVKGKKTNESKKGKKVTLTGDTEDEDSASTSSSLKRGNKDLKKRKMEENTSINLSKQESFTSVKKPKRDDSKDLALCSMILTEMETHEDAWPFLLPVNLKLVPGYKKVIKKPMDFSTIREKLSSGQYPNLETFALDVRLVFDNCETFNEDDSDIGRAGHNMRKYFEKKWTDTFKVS
# Assay: qHTS Assay for Inhibitors of BAZ2B; note: nearly all actives have a fitted effect of over 60% in size
# Conditions: AlphaScreen BAZ2B-H3K14Ac peptide displacement; activity change, negative = inhibition: at 114 µM (top of the series)
# Summary of the method: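 AlphaScreen luminescence quantifies BAZ2B engagement of H3K14Ac peptide; the protein and biotinylated peptide are both at 50 nM final, buffer PBS pH 7.4 with 0.01% Tween-20, all steps at room temperature.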
# % is set by controls: 0 for no effect and ±100 for the full control effect; potency is the fitted concentration of half-maximal effect; tags give direction and shape of the fitted curve.
Structure (SMILES),"activity change, negative = inhibition",Potency
COc1c(Br)cc(/C=N/n2c(-c3ccccc3)n[nH]c2=S)c(O)c1Br,inactive: -8.66%,
COc1ccc2ccccc2c1CNC(C)c1ccccc1 (stereo not given),,"inconclusive: 89.1 µM [inhibitor, single point]"
CCC12CN3CC(CC)(CN(C1)C3c1c[nH]c3ccccc13)C2=O (stereo not given),,"inconclusive: 39.8 µM [inhibitor, partial curve]"
CCOC(=O)N1CCN(C(=O)C2CCN(Cc3cccc(OCc4ccccc4)c3)CC2)CC1,,"inconclusive: 79.4 µM [inhibitor, single point]"
Cc1nc(N2CCCCC2)c2c(C)c(C(=O)Nc3ccc4c(c3)OCCO4)sc2n1,inactive: -38%,
CNc1c(NC(=O)c2ccc3c(c2)OCO3)c(=O)oc2ccccc12,inactive: 1.49%,
Cc1ccc(-c2cn3c(n2)sc2cc(C(=O)NC4CCCCCC4)ccc23)cc1,,"inconclusive: 28.2 µM [inhibitor, full curve]"
CC1=NOC(=O)/C1=C\c1ccc(-c2cccc(Cl)c2)o1,,"inconclusive: 10 µM [inhibitor, partial curve]"
O=C(COC(=O)c1cc(=O)[nH]c2ccccc12)NCc1ccc(F)cc1,,"inconclusive: 20 µM [inhibitor, single point]"
COCCCNC(=O)C1CCN(Cc2cc3ccccc3n2Cc2cccc(Cl)c2)CC1,inactive: -25.6%,
CCOC(=O)c1nc(NCc2ccccc2)sc1C,,"inconclusive: 50.1 µM [inhibitor, partial curve, poor fit]"
CCOC(=O)c1cccc(NC(=O)c2ccc(N(C)C)cc2)c1,,"inconclusive: 89.1 µM [inhibitor, single point]"
O=C(Cc1ccccc1)c1c[nH]c(C(=O)NCCCn2ccnc2)c1,,"inconclusive: 89.1 µM [inhibitor, single point]"
CCOC(=O)c1ccc(Nc2ncccc2[N+](=O)[O-])cc1,,active: 7.94 µM
O=C(N/N=C/c1ccoc1)c1cc(O)cc(O)c1,,active: 20 µM
CCCc1nc2c(c(=O)c3ccccc3n2C)c(=O)n1C1CCCCCC1,,"inconclusive: 89.1 µM [inhibitor, single point]"
COc1ccc(N2CCN(C(=O)c3ccc4c(c3)CCN4S(=O)(=O)c3ccccc3)CC2)cc1,,active: 20 µM
Cc1cc(N(CCO)CCO)ccc1C(c1ccc(N(CCO)CCO)cc1C)c1ccccc1Cl,,active: 44.7 µM
S=c1[nH]nc(CCSCc2ccccc2)n1-c1ccccc1,,"inconclusive: 50.1 µM [inhibitor, partial curve]"
COc1cc(/C=C2\SC(=S)N(c3cccnc3)C2=O)ccc1O,,"inconclusive: 0.631 µM [inhibitor, full curve, poor fit]"
Cc1ccc2c(CC(=O)NNC(=O)c3ccccc3O)coc2c1,,"inconclusive: 79.4 µM [inhibitor, single point]"
CC1=CC(C)(C)Nc2cc(C)c(C)cc21,,active: 50.1 µM
Cc1cc2ccccc2n1CCNC(=O)COc1ccc2ccccc2c1,,"inconclusive: 70.8 µM [inhibitor, single point]"
COc1ccc(OC)c(Nc2ncnc3c2cnn3-c2cccc(C)c2)c1,inactive: 2.97%,

Structure (SMILES),"activity change, negative = inhibition",Potency
CNC(=S)N/N=C(\C)c1ccc(-n2ccnc2)cc1,,"inconclusive: 89.1 µM [inhibitor, single point]"
CCOC(=O)c1ccccc1NC(=O)N1CCCn2nc(C)cc21,inactive: -14.7% [at 57.1 µM],
CCC(=NCCc1c(C)[nH]c2ccc(C)cc12)C1=C(O)CC(c2ccccc2)CC1=O (stereo not given),,"inconclusive: 44.7 µM [inhibitor, full curve, poor fit]"
CC1CCN(c2oc(-c3ccccc3Cl)nc2C#N)CC1,,active: 10 µM
Cc1nc(-c2cccc(C(F)(F)F)c2)sc1C(=O)O,,"inconclusive: 89.1 µM [inhibitor, single point]"
CN(C)c1ccc(NC(=O)c2cn(-c3ccccc3)nc2-c2cccs2)cc1,,active: 35.5 µM
O=C(O)c1cccc(NC2=C(n3nnc4ccccc43)C(=O)c3ccccc3C2=O)c1,,"inconclusive: 89.1 µM [inhibitor, single point]"
CN1CC(=O)Nc2ccc(F)cc2C1=O,,"inconclusive: 89.1 µM [inhibitor, single point]"
CC(=O)N(c1nc(CCl)cs1)c1ccc(C)cc1C,,"inconclusive: 79.4 µM [inhibitor, single point]"
O=C(N/N=C/C(Br)=C\c1ccccc1)c1ccc2nc[nH]c2c1,inactive: -21.8%,
S=c1[nH]c(-c2ccc(Cl)cc2)cs1,,active: 44.7 µM
COC(=O)C1=C(C)N(Cc2ccccc2)C(=NCc2ccc(OC)cc2)N[C@H]1c1ccc(Br)cc1,inactive: 10.3%,
CCN(CCCNC(=O)C1CCN(S(=O)(=O)N2CCOCC2)CC1)c1cccc(C)c1,inactive: -33.4%,
N#Cc1ccc(N2CCCC2C(=O)O)c([N+](=O)[O-])c1 (stereo not given),,"inconclusive: 100 µM [inhibitor, single point]"
Cc1cc(C(=O)COC(=O)c2ccccc2O)c(C)n1CC1CCCO1 (stereo not given),,"inconclusive: 79.4 µM [inhibitor, single point]"
C(=N\Nc1nc(Nc2ccccc2)nc(N2CCOCC2)n1)/c1c[nH]c2ccccc12,,active: 31.6 µM
CC(C)C[C@@H](C(=O)NCc1ccco1)N1C(=O)N2CCc3c([nH]c4ccccc34)[C@@]2(C)C1=O,,"inconclusive: 39.8 µM [inhibitor, partial curve]"
COc1ccc(-c2ccc(CNCCCN3CCOCC3)o2)cc1Cl,,"inconclusive: 50.1 µM [inhibitor, partial curve]"
COc1ccc(/C=C2/SC(=S)N(CCCC(=O)Nc3cccc(O)c3)C2=O)cc1,,"inconclusive: 25.1 µM [inhibitor, partial curve]"
O=S(=O)(c1ccc(Cl)cc1)c1nc(-c2ccco2)oc1N1CCOCC1,,"inconclusive: 79.4 µM [inhibitor, partial curve]"
O=C1c2ccc([N+](=O)[O-])cc2S(=O)(=O)N1Cc1ccccc1,,"inconclusive: 50.1 µM [inhibitor, partial curve]"
N#Cc1c(-c2ccccc2)cc(-c2ccccc2)nc1SCC(O)CS(=O)(=O)Cc1ccccc1 (stereo not given),inactive: -13.7%,
CC(=O)Nc1ccc(S(=O)(=O)Nc2ccc3c(c2)C(=O)OC3)cc1,,"inconclusive: 79.4 µM [inhibitor, single point]"
CCOc1ccc(C(c2c(NC(=O)c3ccccc3)sc(C)c2C)N2CCN(C)CC2)cc1 (stereo not given),,"inconclusive: 31.6 µM [inhibitor, partial curve]"

Structure (SMILES),"activity change, negative = inhibition",Potency
Cc1cccc(NC(=O)CSc2nccn2Cc2ccco2)c1,,"inconclusive: 70.8 µM [inhibitor, single point]"
Cc1c(C)c2ccc(OC(C)C(=O)N3CC[C@@]4(O)CCCC[C@H]4C3)cc2oc1=O (stereo not given in full),,"inconclusive: 56.2 µM [inhibitor, partial curve]"
COCCNC(=O)C(=O)N/N=C(\C)CC(=O)Nc1ccc2c(c1)OCO2,,"inconclusive: 79.4 µM [inhibitor, single point]"
CS(=O)(=O)N1N=C(c2cccs2)CC1c1ccco1 (stereo not given),,"inconclusive: 89.1 µM [inhibitor, single point]"
COc1ccc(-c2cc(=O)oc3c(C)c(OC(C)C(=O)Nc4ccc(CN5CCOCC5)cc4)ccc23)cc1 (stereo not given),,"inconclusive: 3.55 µM [inhibitor, full curve]"
Clc1ccc(SCCCCn2cncn2)cc1,inactive: -3.59%,
CCCCCC(=O)Nc1nc(C)c(-c2csc(Nc3ccc(Cl)cc3)n2)s1,,"inconclusive: 50.1 µM [inhibitor, partial curve]"
COc1ccc(OCCSc2nnc(CCNC(=O)c3ccc(Cl)c(Cl)c3)n2C)cc1,,"inconclusive: 89.1 µM [inhibitor, single point]"
Cc1ccccc1C1c2[nH]c3ccccc3c2CCN1C(=O)c1ccc(=O)n(C)n1 (stereo not given),,active: 10 µM
CNC(=O)C1CCN(C(=O)N2CC(C)Oc3ccc(Cl)cc32)CC1 (stereo not given),,"inconclusive: 35.5 µM [inhibitor, full curve, poor fit]"
COc1ccc(CCNCC(=O)Nc2c(C)cc(C)cc2C)cc1OC,inactive: 6.25%,
COc1cc(/C=N/NC(=O)c2cc(-c3cccn3C)n[nH]2)cc(OC)c1OC,,active: 39.8 µM
O=S(=O)(c1cccs1)N1CCN(CC(O)COC2CCCc3ccccc32)CC1 (stereo not given),,active: 50.1 µM
O=C(CCS(=O)(=O)c1cc(Br)cc2c1N(C(=O)C1CC1)CC2)N1CCN(c2ccccc2)CC1,inactive: -0.187%,
COc1cccc(CN(C)C(=O)c2cccc(S(=O)(=O)N3CCN(Cc4ccccc4)CC3)c2)c1OC,,"inconclusive: 50.1 µM [inhibitor, partial curve]"
CCCn1c(C)cc(/C=C(\C#N)C(=O)O)c1C,inactive: 1.6%,
COc1ccc(S(=O)(=O)NCC(c2cccnc2)N2CCN(c3ccc(F)cc3)CC2)cc1C (stereo not given),,"inconclusive: 50.1 µM [inhibitor, partial curve]"
Cc1ccc(N(CN2C(=O)c3ccccc3C2=O)C(=O)c2ccc([N+](=O)[O-])cc2[N+](=O)[O-])cc1,,"inconclusive: 50.1 µM [inhibitor, partial curve]"
CC1(C)N=C(N)N=C(N)N1c1cccc(C(=O)O)c1,,"inconclusive: 100 µM [inhibitor, single point]"
COc1ccc(S(=O)(=O)c2c(N)n(Cc3ccco3)c3nc4ccccc4nc23)cc1,inactive: -23%,
COc1cc(-c2nc3ccc4ccccc4c3c3c2CCC3)cc(OC)c1OC,inactive: -4.06%,
CCN(CC)CCNc1ncnc2c1sc1nc(N3CCOCC3)c3c(c12)CC(C)(C)SC3,,"inconclusive: 70.8 µM [inhibitor, single point]"
